In PubChem BioAssay AID1159614 (National Center for Advancing Translational Sciences (NCATS), 2016):
The whole screen tested about 45,000 compounds, of which about 65 (0.1%) were called active. Calls come from the whole dose curve; as a rule, active = well fitted activation curve with a large enough effect; inconclusive = small, poorly fitted or top-dose-only effect; inactive = no such curve, though single readings can be large or run the other way. The list shows a part of the results.

These compounds were tested against Galactocerebrosidase (Homo sapiens) (UniProt P54803) (assay: A Novel Cell-Based Assay to Identify Small Molecules for B -Galactocerebrosidase). Details: 145M-Twi-hGALC-G270D cells (Twitcher mouse brain line with human GALC G270D), HMU-beta-Gal fluorescence, 48 h; series mostly up to 57.5 µM; activation: at the top concentration.
In short: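 Brain-derived Twitcher mouse 145M-Twi cells stably expressing human GALC-G270D or wild-type GALC, treated live, then residual GALC activity read by fluorescence of HMU-b-Gal substrate (0.1 mM final) in citrate-phosphate buffer pH 5.2 with sodium taurocholate. Signal increase indicates enhancement.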
Note: 0% is about no effect; nearly all actives have a fitted effect of over 65% in size.

UniProt P54803, sequence (P54803 whole entry, looked up): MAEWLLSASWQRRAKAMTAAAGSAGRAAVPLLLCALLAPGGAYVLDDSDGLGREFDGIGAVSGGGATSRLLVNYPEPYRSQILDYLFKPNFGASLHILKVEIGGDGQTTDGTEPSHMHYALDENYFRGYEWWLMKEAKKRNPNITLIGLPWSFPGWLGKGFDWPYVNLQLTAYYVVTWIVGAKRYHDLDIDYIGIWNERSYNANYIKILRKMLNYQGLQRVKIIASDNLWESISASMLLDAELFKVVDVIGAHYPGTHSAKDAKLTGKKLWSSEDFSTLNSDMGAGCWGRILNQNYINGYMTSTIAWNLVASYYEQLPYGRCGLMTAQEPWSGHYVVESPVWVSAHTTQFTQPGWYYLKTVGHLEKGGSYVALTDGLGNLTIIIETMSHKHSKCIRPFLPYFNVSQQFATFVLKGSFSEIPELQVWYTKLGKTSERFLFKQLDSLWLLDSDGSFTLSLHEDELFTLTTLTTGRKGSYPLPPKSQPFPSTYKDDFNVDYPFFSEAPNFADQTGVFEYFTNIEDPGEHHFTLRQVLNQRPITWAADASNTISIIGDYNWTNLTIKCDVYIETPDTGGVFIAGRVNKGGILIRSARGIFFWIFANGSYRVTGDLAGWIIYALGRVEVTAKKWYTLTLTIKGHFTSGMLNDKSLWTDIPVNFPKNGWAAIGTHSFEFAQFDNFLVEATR

activation, inactive:
CCOc1c(Br)cc(C2CC(=O)Nc3cc4c(cc32)OCO4)cc1OC (stereo unspecified) -25%, COC(=O)c1ccc(NC(=O)CCCC(=O)OCC(=O)c2ccc(Cl)cc2)cc1 -16.7%, COc1ccc(C)cc1NS(=O)(=O)c1c(C(=O)N2CCC(C)CC2)c(C)n(C)c1C -7.73%, Cc1ccc(NC(=O)c2oc3ccc4c(c3c2C)C(=O)CC(C)(C)O4)c(C)c1 7.16%, Cc1ccc(-c2noc(-c3ccc(N4CCN(C)CC4)c([N+](=O)[O-])c3)n2)cc1 -7.6%, O=C(COc1ccccc1)NCC(c1ccc(Cl)cc1)N1CCOCC1 (stereo unspecified) -7.53%, COc1cccc(C(=O)N2c3ncnn3C3(CCCCC3)[C@@H]3CCCC[C@@H]32)c1 -12.5%, COc1ccc(N2CCN(S(=O)(=O)c3ccc(-c4ccno4)cc3OC)CC2)cc1 8.08%, CCCCc1ccc(NC(=O)c2ccc3c(c2)CCN3S(=O)(=O)CC)cc1 -3.84%, Cc1ccccc1OCC(=O)NCC(c1ccc(Cl)cc1)N1CCCCC1 (stereo unspecified) -6.54%, CCOc1ccc(/C=C/c2nc(C#N)c(NC(C)c3ccccc3)o2)cc1 (stereo unspecified) 0.227%, COc1ccc(C)cc1NC(=O)Nc1cccc(OCc2cc(=O)n3ccc(C)cc3n2)c1 -9.34%, Cn1ncc2c(N3CCN(c4ccccc4F)CC3)ncnc21 -9.99%, CCOC(=O)c1ccc(-n2c(CCC(=O)O)ccc2-c2ccccc2)cc1 -9.56%, COc1ccc(C(=O)CC2(O)C(=O)N(Cc3cccc(C(F)(F)F)c3)c3ccccc32)cc1 (stereo unspecified) -5.7%, CC(=O)N1CCc2cc(Br)cc(S(=O)(=O)N3CCC(C(=O)Nc4ccc(C(C)C)cc4)CC3)c21 -12.1%, CN(Cc1ccccc1)S(=O)(=O)c1ccc(NC(=O)c2cc(=O)c3ccccc3o2)cc1 -23.3%, CCc1cccc(C)c1NC(=O)CN1C(=O)C2(SCC(=O)N2c2cccc(F)c2)c2ccccc21 (stereo unspecified) -9.14%, O=C(Cn1ncc2c([nH]c3ccccc32)c1=O)NCCCN1CCN(c2ccccc2)CC1 -14.9%, Cc1cccc(N2CCN(S(=O)(=O)c3cc(C(=O)Nc4ccc(Oc5ccccc5)cc4)ccc3F)CC2)c1C -8.62%, O=c1oc2ccccc2c(N2CCN(c3ccc(F)cc3)CC2)c1CN1CCCC1 -15.3%, COc1ccc(C(=O)COC(=O)c2cc(-c3cccs3)nc3ccccc23)cc1 -19.5%, COc1ccc(OC)c(Nc2sc(C(=O)c3ccccc3)c(N)c2S(=O)(=O)c2ccccc2)c1 -14.4%, Cc1ccccc1NC(=O)Cn1c(=O)n(CCc2ccccc2)c(=O)c2ccccc21 -9.4%, COc1ccc(Br)cc1[C@@H]1Nc2ccc(C(=O)O)cc2[C@@H]2C=CC[C@@H]21 -16.4%, CCOc1ccc(CCNC(=O)CSc2nnnn2-c2ccccc2)cc1OCC -0.195%, CCOC(=O)c1cccc(NC(=O)c2oc3c(c2C)-c2nn(CC)cc2CC3)c1 5.45%, Cc1c(Cl)cccc1-n1ncc(C(=O)NC2CCCCC2)c1C1CCN(C(=O)OC(C)(C)C)CC1 -5.56%, Cc1ccc(CNC(=O)Cc2csc3ccccc23)cc1 -9.49%, COc1ccc(CNC(=O)C(C)n2nc(C)c3c(C)n(-c4ccccc4)nc3c2=O)c(OC)c1 (stereo unspecified) -16.6%, CCc1nn2c(=O)cc(COC(=O)c3ccccc3NC(=O)COc3ccc(C)c(C)c3)nc2s1 -11.7%, CCCCn1cc(S(=O)(=O)c2cc(C)ccc2C)c(=O)c2cc(F)c(F)cc21 19.9%, CC(C(=O)Nc1ccc(OC(F)(F)F)cc1)N1Cc2ccccc2C1=O (stereo unspecified) -0.338%, Cc1oc(-c2ccccc2F)nc1CN1CCC(C(=O)NCCc2ccccc2)CC1 -27%, Cc1ccc(OCC(=O)NCC(c2ccc(Cl)cc2)N2CCOCC2)cc1C (stereo unspecified) -10.2%, Cc1ccn2c(=O)cc(COc3ccc(NC(=O)COc4ccc(C)c(C)c4)cc3)nc2c1 0.629%, CCOc1cc(C2c3c(oc4ccccc4c3=O)C(=O)N2Cc2ccc(OC)cc2)ccc1O (stereo unspecified) -20.6%, O=c1c2ccccc2n(Cc2c(F)cccc2Cl)c(=O)n1CCc1ccccc1 -3.18%, COc1ccc(C)cc1NC(=O)c1cnc2ccc(C)cn2c1=O -20.6%, Cc1cc2c(cc3c(SCc4ccc(Cl)cc4)nncn32)o1 -10.4%, COCCNC(=O)CCCn1c(SCC(=O)c2ccc(Br)cc2)nc2c(sc3ccccc32)c1=O -13.3%, O=C(O)c1ccc2nc(-c3cc4cc(Cl)ccc4oc3=O)[nH]c2c1 -8.44%, COc1ccc(-n2cnc3cc(C(=O)NC4CCCCCC4)ccc32)cc1 -10.4%, CCOC(=O)c1c(C)[nH]c(C)c1S(=O)(=O)N(C)CC(=O)NCc1ccc(Cl)cc1 -7.54%, Cc1ccc(C(=O)c2oc3ccccc3c2NC(=O)Cc2coc3ccc(C)cc23)cc1 -14.1%, Cc1ccc(-c2nc3c4ccccc4n(CC(=O)NCc4ccc(F)cc4)c(=O)n3n2)cc1 -13.3%, Cc1cccc(Nc2c(-c3ccsc3)nc3nc(C)cc(C)n23)c1 -13.2%, O=C(CCCCn1c(=O)c2ccccc2n(Cc2cccc(F)c2)c1=O)NCc1ccc2c(c1)OCO2 -7.61%, CCOc1ccc(CCNC(=O)CCCc2nnc3n(CC)c(=O)c4sccc4n23)cc1 -0.989%, CCSc1ncc(Cl)c(C(=O)Nc2c(C(=O)Nc3ccccc3)oc3ccccc23)n1 -3.95%, O=C(CSc1nccn1-c1cccc(Cl)c1)Nc1cccc2ccccc12 -2.96%, CCc1nn(CC(=O)NCCCN(CC)CC)c(=O)c2cc3occc3n12 -4.12%, COc1cccc(CNC(=O)CN2C(=O)N(c3ccc(C)cc3C)S(=O)(=O)c3ccccc32)c1OC 0.48%, CCc1nc(-c2cc(S(=O)(=O)N3CCN(c4ccccc4)CC3)ccc2OC)no1 -5.39%, Cn1c(SCC(=O)Nc2nc3ccccc3s2)ncc(C(=O)Nc2ccccc2)c1=O -14.4%, COc1ccc(C)cc1-n1cnc2cc(C(=O)NC3CCCCCC3)ccc21 -17.6%, O=C1COc2cc(S(=O)(=O)CCC(=O)NC3CCCCC3)c(Cl)cc2N1 -3.36%, Cc1ccc2onc(CNC(=O)NCc3ccc(Cl)cc3)c2c1 -11.5%, COc1ccc(-c2nc3cc(C)ccn3c2NC(=O)c2cccc(F)c2)cc1 -11.7%, Cn1c(=O)c2c(-c3ccc(Br)cc3)n(Cc3ccc(F)cc3)cc2n(C)c1=O -12.1%, O=C(O)c1c(-c2ccccc2)oc2ccc(OCc3c(F)cccc3Cl)cc12 -18.2%
